The list shows a part of the results. At the low end of the ranking the order means little. Measured with an extract: partners may take part in the binding.

We go through 73 sequences from article PMC10726135.

This test has as its target T1, HNF4alpha8 (COS-7 nuclear extract) (UniProt P41235-5).
T1 sequence: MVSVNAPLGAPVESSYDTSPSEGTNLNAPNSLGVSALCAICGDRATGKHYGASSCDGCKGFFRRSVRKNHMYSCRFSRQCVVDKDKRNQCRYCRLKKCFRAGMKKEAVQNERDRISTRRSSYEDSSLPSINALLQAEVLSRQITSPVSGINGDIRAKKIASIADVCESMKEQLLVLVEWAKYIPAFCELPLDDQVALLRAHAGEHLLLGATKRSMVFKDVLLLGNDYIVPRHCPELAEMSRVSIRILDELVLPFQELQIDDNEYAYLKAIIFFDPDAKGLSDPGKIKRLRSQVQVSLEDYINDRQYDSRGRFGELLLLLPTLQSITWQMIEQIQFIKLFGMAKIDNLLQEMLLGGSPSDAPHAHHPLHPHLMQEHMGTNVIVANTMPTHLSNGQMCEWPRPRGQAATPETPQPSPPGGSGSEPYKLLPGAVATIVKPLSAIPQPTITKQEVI
Put plainly: protein-binding microarray. The conditions noted are these: COS-7 nuclear extract on double-stranded Agilent 4x180k PBM; binding buffer, salt, pH and temperature not given; high values mean tight binding; double strand, one strand shown; sequences stand for … in …GCCTAGGGAGATTAGAGTATCGGTCGA
On to AGTATGCCACTGGTTAGTTCCAAAGGACAA, for which the binding signal (log2 normalized intensity) is 2.14. TTCTCTAGATGTCCCAGTAGATAACTTCAA: the binding signal (log2 normalized intensity) was -0.561. The result for AGCTCTGCAATAGAGCCACATTCTGAGACT reads -1.28; that for GGCTGATTGGCAGGCATTCCACACTGCAGG, -1.2. As to AGAGCAGTGGAAGACAAATGATAATACTTA, the binding signal (log2 normalized intensity) was -1.28. As to CAAGGAGGCTGAAGAAGTTGCTCAGTGTTC, the binding signal (log2 normalized intensity) was determined as 0.223. For the sequence GCAGTTTTTGATCAAGGAGGACTTTGGAAT, the binding signal (log2 normalized intensity) stood at 7.54. As for AGGAGTACACACCATAAGAGGCTCTAGATC, the figure is -1.08; as for GTTACTGTGTTCCTTTTATCTTACATGCCT, 0.776; as for ATGCATAGAAGTATGTCTGGGATTTGAAGG, -1.1. Consider TGCAGAGCTTGCTCTCACCAGCTTCTTCTC, for which the binding signal (log2 normalized intensity) is -1.29.

For the sequence GGGGGAGGGGACTTCGCTGGAGGTGTTAAA, the binding signal (log2 normalized intensity) was -1.21. TCTGCTGTTCTTGCCTGATAGCATCGTGGG: the binding signal (log2 normalized intensity) came out at 0.443. As for CTTGGGGTAATCTCCCAATCTCGAGATCAT, the figure is -1.33; as for GAGAAAGAGGGGAAGGATGAATTTAAAAAA, -1.34.

For TAAAGTGTCTCCCTCTGCAGCAAAGTCCAG, the binding signal (log2 normalized intensity) was 3.17. As for TCTTTATTCGTGAGTTTTCCATTTACCTCC, the figure is 0.865. The result for TCCTGTTTGTCAGCATCTTCACCGTAAAGC reads -0.706. For AGCCAAAATAAAGCAGCAAACCAGATAAGA, the binding signal (log2 normalized intensity) was -1.38.

Take ACTGGTGTTGCTCAAATATTTGGAGAGCAG: the binding signal (log2 normalized intensity) was determined as 0.699. Turning to CTATGTGAGGAATCTAAGATAAGCAGCATT, the binding signal (log2 normalized intensity) is -1.28. The result for CTCGCAGAAAGTGGCCGGACAGGTTGGGTC reads 0.737. With ACAGCGTACTGTGCTAAAGAGTGATTGAAG, the binding signal (log2 normalized intensity) was -1.26. Turning to GTTGCCTGTGAGTCAGGTACCTGCTTCTGC, the binding signal (log2 normalized intensity) stood at 0.609. As for TCAAATATTTGGATAATGTGCCCTTTGTAC, the figure is 7.39; as for AGAGAACTGAAAAAGGGGACCGGCCTTTCC, -1.37.

In the case of CTGTGTCTTGGCAGTGATCAGTGTTGAGAA, the binding signal (log2 normalized intensity) turned out to be 1.56. As for TACAGAGTATAATAAAGTGGCAACCCTTGA, the figure is 1.59.

With TTACTCATGTGGTCCTAAGACTAACCTTTG, the binding signal (log2 normalized intensity) was 4.06. As for ACAGTAAAGAACAAACTTCCCCTGCAGCTG, the figure is -1.19; as for TGAAAAGAGTGATCTTTGGGCCATATTGAC, 1.62. As for GCCTGAATGCAGGGAGCAGAGTCCCAAGCA, the figure is -1.31. In the case of TGGTCCCATAGGAAAGTGAGCATGGGCTTA, the binding signal (log2 normalized intensity) is -1.16.

As for AAGTGACTTCAAGGGAGTAAAGGTCGTTCT, the binding signal (log2 normalized intensity) is 5.74. As for GTAGACACTCATCCCTTGCACTGCTCAGGG, the figure is -1.09; as for ATAAGTTTTCTCATAAAACACCCACCTTGT, -0.154. On to GGCGGGGCAGCAGGGAAGAGCCGGCCGGCG, for which the binding signal (log2 normalized intensity) was -1.31. With CTGTGCAAGCCCCTGACCAAGGGTCATGCT, the binding signal (log2 normalized intensity) was 3.96. Take GGTTCAAAGTGTAGCGCAGCCAGTTCTGGA: the binding signal (log2 normalized intensity) is -1.3.

In the case of GCGGAAGCACACACGAGCTGTGCGCTTAGT, the binding signal (log2 normalized intensity) is -1.28. The result for CTGAACCTTGCACTATTGACCCAGTGAAAC reads 3.39. For the sequence CATTTTACAGTGCCATTTATCAGTGATTTC, the binding signal (log2 normalized intensity) amounted to 0.109. As for CTTCCCTAAGCAGCTGCAGTTTCTGCTATC, the figure is -1.25; as for AAAAGCTTTTCTTCCCCCCTCCCTCCGCAA, 5.54; as for CGGTCACATTCCACTCAGTCTCTTGAAATC, 0.256. The result for CCTCCTCCTTGGCTCTCCCCACTTACTTCC reads 1.85; that for GCCGGGAAGATGCCAGCCCCGAGATAACCC, 3.35. As for GGGAATGGCTCGTATGAATGTGGGAAGCTG, the binding signal (log2 normalized intensity) was -1.43. The result for GGTCGGGGAGGTGTTTATCTTGTGGTTGGA reads 2.32; that for GCCTGAACTGACTGCATTCCCTTTCTCCTC, -0.597; that for ATTTATCAAGATGAACTTTGACCCACCTAC, 8.8. The result for AGAGAGAGGTGGGCAAAGGTCTCAAGGCCT reads 2.76. Turning to TCCATCATTTTTCTCTCTTGGACTCTTGGA, the binding signal (log2 normalized intensity) amounted to 4.92. With TCAGAGGCTGATTTCTCAGGAAGTGCTTGT, the binding signal (log2 normalized intensity) is -0.831.

For CATTTTTCTCTCTTGGACTCTTGGACTCCC, the binding signal (log2 normalized intensity) stood at 7.67. Regarding CAGGTCTCTTTTATGTACCACCGTATTCCT, the binding signal (log2 normalized intensity) came out at 1.21.

For the sequence ATGGTTAAGGTGAAAGTCCGACTTTTAAGA, the binding signal (log2 normalized intensity) was found to be 4.06.

With TGGACTTTGAGTCATAAGAAACATTTTACA, the binding signal (log2 normalized intensity) came to 3.81. On to CTCCCACGTCGCTGCCGCAGATCCCCGCTC, for which the binding signal (log2 normalized intensity) is -1.26.

Regarding ACATTTCAAAAGCTGTGTGCTCCTGTAGAA, the binding signal (log2 normalized intensity) was -0.839. As for ACATGGTTCACTGATTACTGGATGTATAAT, the figure is 1.09; as for GGGTCTTTTTGACCTGTATCTTGTGGTGAC, 2.81. As for ATGGTCAGTGTTGATAAGAAAGCTGCAGTC, the figure is -0.903; as for GGGCCGCCTTGGAAAACCCGGCGCGGACAT, -1.35; as for AGACGGGGCTCTCAGAATCTGCCGATCACT, -1.35. As for TTCTTAAGATAAGGACTGTTGGACCTCGAA, the figure is 3.26; as for GGACTTGATGATTGACACTATTATTACTGT, 0.729; as for TTTGCTATGGCCTTTCTTCATTGTTCGCAT, 0.609.

As for TGCCTCCTTCAAGGATTAGCAGATAAATCT, the binding signal (log2 normalized intensity) is -0.736. For TGAGGACTTTGGTCTTATTACTAAGTGAGA, the binding signal (log2 normalized intensity) turned out to be 2.64.

As for GACCTGTTTGTCTTGCTGGGGAGATCAGAG, the binding signal (log2 normalized intensity) is 1.23.

With GCCTTTCAGGCAGGAGACGATGGTTTTCCA, the binding signal (log2 normalized intensity) is -1.3.

For the sequence CGCCTTGCACAAATTTCAGATATCTGAATG, the binding signal (log2 normalized intensity) stood at 0.505.
